Data as given in PMC8419023 (Structure (London, England : 1993), 2021).

Target: GST CDK2-cyclin A^173−432 (human, UniProt P24941; P20248 fragment)
Assay: pull-down

binding result: binds
B1: Skp1-Skp2^Δ1−16 (complex)
chain 1: not shown
chain 2: MPSIKLQSSDGEIFEVDVEIAKQSVTIKTMLEDLGMDPVPLPNVNAAILKKVIQWCTHHKDDPGSGGTDDIPVWDQEFLKVDQGTLFELILAANYLDIKGLLDVTCKTVANMIKGKTPEEIRKTFNIKNDFTEEEEAQVRKENQWCEEK
